Test results from PubChem BioAssay AID493208 (National Center for Advancing Translational Sciences (NCATS), 2011).
The campaign covered roughly 44,000 compounds. About 340 (0.77%) were called active. Not shown: some 5% with an inconclusive outcome. Calls follow the shape of the dose curve; as a rule, active = well fitted inhibition curve with a large enough effect; inconclusive = small, poorly fitted or top-dose-only effect; inactive = flat fitted curve, though single readings scatter. The list shows a part of the results.

Test: Acumen qHTS Assay for Inhibitors of the mTORC1 Signaling Pathway in MEF (Tsc2-/-, p53-/-) Cells: Sytravon;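 also: plate controls were DMSO for no effect and rapamycin for full effect; nearly all actives have a fitted effect of over 50% in size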
Settings: phospho-rpS6 immunofluorescence/PI, 24 h; series mostly up to 38.3 µM; activity change, negative = inhibition: at the top concentration
Outline: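 Read-out: phospho-S6 Alexa-488 intensity over PI intensity per well, scored as % active cells using thresholds from rapamycin (7.5 nM) and DMSO controls. Tsc2-/-, p53-/- MEFs exposed to compound for 24 h; PI cell count recorded as viability.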

Activity change, negative = inhibition, inactive:
Cc1ccc(C(=O)CSc2nnc(-c3ccccc3)n2-c2ccccc2)cc1 9.09%
COc1cccc(-n2c(-c3ccco3)nc3c(cnn3-c3ccc(C)cc3)c2=O)c1 -7.67%
CCN1c2ccccc2-c2nc(SCC(=O)Nc3c(C)cc(C)cc3C)ncc2S1(=O)=O 3.44%
CCOc1ccc(NC(=O)CSc2ncc3c(n2)-c2cc(Cl)ccc2N(C)S3(=O)=O)cc1 3.24%
Cc1ccc2cccc(NC(=O)C(C)Oc3ccc(C)c(C)c3)c2n1 (configuration not stated) -10.5%
CC1=C(C(=O)NCc2ccc(C)cc2)C2(CCCCC2)OC1=O 15.4%
O=C(Nc1cc(Cl)ccc1Cl)C1(c2cccs2)CCOCC1 -0.626%
Cc1noc(Cn2c(=O)c3ccccc3n(CC(=O)Nc3ccc(Cl)cc3)c2=O)n1 -0.0429%
COc1ccc(Nc2ncc(C(=O)Nc3cc(Cl)c(OC)cc3OC)c3ccccc23)cc1 -4.21%
CN(C)c1ccc(C(CNS(=O)(=O)c2ccc(F)cc2)N2CCCC2)cc1 (configuration not stated) 0.528%
O=C(CCS(=O)(=O)c1nc(-c2ccc3c(c2)OCO3)cc(C(F)(F)F)n1)Nc1ccc(F)c(Cl)c1 -3.9%
COc1ccc(NC(=O)CCNS(=O)(=O)c2cccc3nonc23)c(OC)c1 8.04%
CC(=O)N1CCCc2cc(S(=O)(=O)N3CCCC(C(=O)Nc4cccc(F)c4)C3)ccc21 (configuration not stated) -13.4%
O=C(Nc1ncc(Cc2ccc(Cl)cc2)s1)c1ccc2c(c1)CC(c1ccccc1)OC2=O (configuration not stated) -1.01%
COc1cccc(CNC(=O)CSc2nc3ccccc3nc2Cc2ccc(C)cc2)c1OC -4.55%
CCCn1c2ccccc2c2cnn(CC(=O)NCCc3ccc(OCC)c(OCC)c3)c(=O)c21 -1.54%
Cc1ccc(NC(=O)CCNS(=O)(=O)c2ccc3c(c2)CCN3C(=O)C2CC2)c(Cl)c1 -11.2%
CCOC(=O)CNC(=O)c1cc2c(=O)n3cccc(C)c3nc2s1 8.4%
COc1cccc(C2CC(=O)Nc3c2c(=O)nc2c(C)cccn32)c1 (configuration not stated) -0.892%
CCCCNC(=O)CCn1c(=O)c2cccn2c2ccc(F)cc21 2.66%
Cc1noc(Cn2c(=O)c3ccccc3n(CC(=O)Nc3cccc(Cl)c3C)c2=O)n1 -5.07%
CC1CCN(c2nn3c(=O)c(C(=O)NCc4ccc(Cl)cc4)cnc3s2)CC1 1.77%
CC(=O)N1CCCc2cc(S(=O)(=O)N(C)CC(=O)Nc3ccc(C)cc3C)ccc21 -2.22%
N#Cc1nc(/C=C/c2ccc(F)cc2)oc1N1CCN(c2ccccc2)CC1 2.36%
CC(C)c1ccc(OCC(=O)Nc2c(Cl)ccc3nsnc23)cc1 -10%
Cc1cccc(-c2noc(-c3cccnc3NCc3ccco3)n2)c1 0.403%
COc1cccc(C2c3c(oc4ccc(C)cc4c3=O)C(=O)N2CCCN2CCOCC2)c1OC (configuration not stated) -5.85%
